Reference: the supplement of paper PMC4967469
A lower IC50 marks a more sensitive line; a limit (>, <) means that the fit lies beyond the doses tested. AUC sums up the same curve from the lowest dose to the 256-fold higher top dose; it is 1 without any effect and falls as sensitivity rises. For some assays here: The top dose, if marked as inferred, was derived from the fitted curves, not read from the paper. For some assays here: Drugs with an entry number were screened twice under separate entries, and the two screens often disagree.

Columns and labels:
Assay in all cases: Viability of human cancer cell lines after 72 h of drug (GDSC screen)
MP470 = compound: S=C(NCc1ccc2c(c1)OCO2)N1CCN(c2ncnc3c2oc2ccccc23)CC1 [MP470]; settings: top dose 20 µM; top dose inferred
Description: (§1)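 Human cancer cell lines in 384-well plates, medium with 10% serum, drug for 72 h over a 256-fold dose range (nine 2-fold or five 4-fold steps up to the top dose). Adherent lines were fixed and stained with the nucleic acid dye Syto60, suspension lines read with resazurin; signal relative to control wells, capped at 0 and 100%. One two-parameter sigmoid per drug and line, fitted in a mixed model over all curves with the slope shared within a line.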

LFM-A13 = compound: C/C(O)=C(\C#N)C(=O)Nc1cc(Br)ccc1Br [LFM-A13]; settings: top dose 16 µM; top dose inferred
Description: as §1

T0901317 = compound: O=S(=O)(c1ccccc1)N(CC(F)(F)F)c1ccc(C(O)(C(F)(F)F)C(F)(F)F)cc1 [T0901317]; settings: top dose 10.24 µM; top dose inferred
Description: as §1

Nilotinib = compound: Cc1cn(-c2cc(NC(=O)c3ccc(C)c(Nc4nccc(-c5cccnc5)n4)c3)cc(C(F)(F)F)c2)cn1 [Nilotinib]; settings: top dose 2 µM
Description: as §1

AUY922 = compound: CCNC(=O)c1noc(-c2cc(C(C)C)c(O)cc2O)c1-c1ccc(CN2CCOCC2)cc1 [AUY922]; settings: top dose 0.256 µM; top dose inferred
Description: as §1

Gemcitabine = compound: Nc1ccn([C@@H]2O[C@H](CO)[C@@H](O)C2(F)F)c(=O)n1 [Gemcitabine]; settings: top dose 1.024 µM
Description: as §1

KIN001-270 = compound: Cc1ccc(Nc2cc(-c3cccc(N4C(=O)c5ccccc5C4=O)c3)ncn2)cc1NS(C)(=O)=O [KIN001-270]; settings: top dose 20 µM; top dose inferred
Description: as §1

Bicalutamide = compound: CC(O)(CS(=O)(=O)c1ccc(F)cc1)C(=O)Nc1ccc(C#N)c(C(F)(F)F)c1 [Bicalutamide]; settings: top dose inferred
Description: as §1

TW-37 = compound: CC(C)c1ccccc1Cc1cc(C(=O)Nc2ccc(S(=O)(=O)c3ccccc3C(C)(C)C)cc2)c(O)c(O)c1O [TW-37]; settings: top dose 5 µM
Description: as §1

[1] = top dose 1.024 µM, screen: GDSC drug entry 150
[2] = top dose 10 µM, screen: GDSC drug entry 1502

## G-292 Clone A141B1 (osteosarcoma, adherent)
MP470
  AUC: 0.976
  IC50: > 20000 nM
LFM-A13
  AUC: 0.952
  IC50: > 16000 nM
T0901317
  AUC: 0.962
  IC50: > 10200 nM
Nilotinib
  AUC: 0.954
  IC50: > 2000 nM
AUY922
  AUC: 0.608
  IC50: 37.7 nM
Gemcitabine
  AUC: 0.976
  IC50: > 1020 nM
KIN001-270
  AUC: 0.976
  IC50: > 20000 nM
Bicalutamide; [1]
  AUC: 0.84
  IC50: > 1020 nM
Bicalutamide; [2]
  AUC: 0.967
  IC50: > 10000 nM

## NCI-H841 (small cell lung carcinoma, adherent)
MP470
  AUC: 0.81
  IC50: 10600 nM
LFM-A13
  AUC: 0.981
  IC50: > 16000 nM
TW-37
  AUC: 0.372
  IC50: 138 nM
T0901317
  AUC: 0.973
  IC50: > 10200 nM
Nilotinib
  AUC: 0.986
  IC50: > 2000 nM
Gemcitabine
  AUC: 0.956
  IC50: > 1020 nM
KIN001-270
  AUC: 0.979
  IC50: > 20000 nM
Bicalutamide; [1]
  AUC: 0.988
  IC50: > 1020 nM
Bicalutamide; [2]
  AUC: 0.976
  IC50: > 10000 nM

## EFM-19 (breast, adherent)
MP470
  AUC: 0.977
  IC50: > 20000 nM
LFM-A13
  AUC: 0.933
  IC50: > 16000 nM
TW-37
  AUC: 0.715
  IC50: 1770 nM
T0901317
  AUC: 0.978
  IC50: > 10200 nM
Nilotinib
  AUC: 0.975
  IC50: > 2000 nM
Gemcitabine
  AUC: 0.961
  IC50: > 1020 nM
KIN001-270
  AUC: 0.968
  IC50: > 20000 nM
Bicalutamide; [1]
  AUC: 0.975
  IC50: > 1020 nM
Bicalutamide; [2]
  AUC: 0.954
  IC50: > 10000 nM

## SiHa (cervix, adherent)
MP470
  AUC: 0.902
  IC50: > 20000 nM
LFM-A13
  AUC: 0.951
  IC50: > 16000 nM
T0901317
  AUC: 0.987
  IC50: > 10200 nM
Nilotinib
  AUC: 0.987
  IC50: > 2000 nM
AUY922
  AUC: 0.954
  IC50: > 256 nM
Gemcitabine
  AUC: 0.987
  IC50: > 1020 nM
KIN001-270
  AUC: 0.986
  IC50: > 20000 nM
Bicalutamide; [1]
  AUC: 0.986
  IC50: > 1020 nM
Bicalutamide; [2]
  AUC: 0.973
  IC50: > 10000 nM

## IGR-37 (melanoma, adherent)
LFM-A13
  AUC: 0.989
  IC50: > 16000 nM
TW-37
  AUC: 0.433
  IC50: 208 nM
T0901317
  AUC: 0.988
  IC50: > 10200 nM
Nilotinib
  AUC: 0.958
  IC50: > 2000 nM
AUY922
  AUC: 0.48
  IC50: 14.2 nM
Gemcitabine
  AUC: 0.172
  IC50: 7.37 nM
KIN001-270
  AUC: 0.971
  IC50: > 20000 nM
Bicalutamide; [1]
  AUC: 0.983
  IC50: > 1020 nM
Bicalutamide; [2]
  AUC: 0.984
  IC50: > 10000 nM

## KYSE-450 (oesophagus, adherent)
MP470
  AUC: 0.963
  IC50: > 20000 nM
LFM-A13
  AUC: 0.976
  IC50: > 16000 nM
T0901317
  AUC: 0.979
  IC50: > 10200 nM
Nilotinib
  AUC: 0.988
  IC50: > 2000 nM
AUY922
  AUC: 0.428
  IC50: 10.3 nM
Gemcitabine
  AUC: 0.299
  IC50: 18 nM
KIN001-270
  AUC: 0.985
  IC50: > 20000 nM
Bicalutamide; [1]
  AUC: 0.988
  IC50: > 1020 nM
Bicalutamide; [2]
  AUC: 0.984
  IC50: > 10000 nM

## HSC-2 (head and neck, adherent)
MP470
  AUC: 0.964
  IC50: > 20000 nM
LFM-A13
  AUC: 0.981
  IC50: > 16000 nM
T0901317
  AUC: 0.985
  IC50: > 10200 nM
Nilotinib
  AUC: 0.987
  IC50: > 2000 nM
AUY922
  AUC: 0.358
  IC50: 6.68 nM
Gemcitabine
  AUC: 0.147
  IC50: 5.79 nM
KIN001-270
  AUC: 0.987
  IC50: > 20000 nM
Bicalutamide; [1]
  AUC: 0.989
  IC50: > 1020 nM
Bicalutamide; [2]
  AUC: 0.968
  IC50: > 10000 nM

## H513 (mesothelioma, semi-adherent)
MP470
  AUC: 0.963
  IC50: > 20000 nM
LFM-A13
  AUC: 0.971
  IC50: > 16000 nM
TW-37
  AUC: 0.764
  IC50: 2190 nM
T0901317
  AUC: 0.986
  IC50: > 10200 nM
Nilotinib
  AUC: 0.986
  IC50: > 2000 nM
Gemcitabine
  AUC: 0.984
  IC50: > 1020 nM
KIN001-270
  AUC: 0.986
  IC50: > 20000 nM
Bicalutamide; [1]
  AUC: 0.985
  IC50: > 1020 nM
Bicalutamide; [2]
  AUC: 0.984
  IC50: > 10000 nM

## VMRC-RCW (kidney, adherent)
MP470
  AUC: 0.964
  IC50: > 20000 nM
LFM-A13
  AUC: 0.952
  IC50: > 16000 nM
T0901317
  AUC: 0.987
  IC50: > 10200 nM
Nilotinib
  AUC: 0.983
  IC50: > 2000 nM
AUY922
  AUC: 0.481
  IC50: 14.3 nM
Gemcitabine
  AUC: 0.183
  IC50: 7.89 nM
KIN001-270
  AUC: 0.983
  IC50: > 20000 nM
Bicalutamide; [1]
  AUC: 0.989
  IC50: > 1020 nM

## G-401 (kidney, adherent)
MP470
  AUC: 0.847
  IC50: 16900 nM
LFM-A13
  AUC: 0.912
  IC50: > 16000 nM
TW-37
  AUC: 0.567
  IC50: 486 nM
T0901317
  AUC: 0.969
  IC50: > 10200 nM
Nilotinib
  AUC: 0.975
  IC50: > 2000 nM
Gemcitabine
  AUC: 0.531
  IC50: 78.6 nM
KIN001-270
  AUC: 0.93
  IC50: > 20000 nM
Bicalutamide; [1]
  AUC: 0.981
  IC50: > 1020 nM
Bicalutamide; [2]
  AUC: 0.956
  IC50: > 10000 nM

## HCC-78 (lung adenocarcinoma, adherent)
MP470
  AUC: 0.913
  IC50: > 20000 nM
LFM-A13
  AUC: 0.977
  IC50: > 16000 nM
T0901317
  AUC: 0.951
  IC50: > 10200 nM
Nilotinib
  AUC: 0.962
  IC50: > 2000 nM
AUY922
  AUC: 0.813
  IC50: 169 nM
Gemcitabine
  AUC: 0.377
  IC50: 27.7 nM
KIN001-270
  AUC: 0.93
  IC50: > 20000 nM
Bicalutamide; [1]
  AUC: 0.983
  IC50: > 1020 nM
Bicalutamide; [2]
  AUC: 0.981
  IC50: > 10000 nM

## LoVo (large intestine, adherent)
MP470
  AUC: 0.742
  IC50: 6200 nM
LFM-A13
  AUC: 0.969
  IC50: > 16000 nM
T0901317
  AUC: 0.962
  IC50: > 10200 nM
Nilotinib
  AUC: 0.97
  IC50: > 2000 nM
AUY922
  AUC: 0.559
  IC50: 23.2 nM
Gemcitabine
  AUC: 0.284
  IC50: 15.6 nM
KIN001-270
  AUC: 0.987
  IC50: > 20000 nM
Bicalutamide; [1]
  AUC: 0.986
  IC50: > 1020 nM
Bicalutamide; [2]
  AUC: 0.982
  IC50: > 10000 nM

## DOK (head and neck, adherent)
MP470
  AUC: 0.974
  IC50: > 20000 nM
LFM-A13
  AUC: 0.971
  IC50: > 16000 nM
TW-37
  AUC: 0.675
  IC50: 1240 nM
T0901317
  AUC: 0.973
  IC50: > 10200 nM
Nilotinib
  AUC: 0.946
  IC50: > 2000 nM
Gemcitabine
  AUC: 0.976
  IC50: > 1020 nM
KIN001-270
  AUC: 0.968
  IC50: > 20000 nM
Bicalutamide; [1]
  AUC: 0.974
  IC50: > 1020 nM

## MDA-MB-330 (breast, adherent)
MP470
  AUC: 0.942
  IC50: > 20000 nM
LFM-A13
  AUC: 0.962
  IC50: > 16000 nM
T0901317
  AUC: 0.984
  IC50: > 10200 nM
Nilotinib
  AUC: 0.986
  IC50: > 2000 nM
AUY922
  AUC: 0.608
  IC50: 33 nM
Gemcitabine
  AUC: 0.977
  IC50: > 1020 nM
KIN001-270
  AUC: 0.976
  IC50: > 20000 nM
Bicalutamide; [1]
  AUC: 0.985
  IC50: > 1020 nM
Bicalutamide; [2]
  AUC: 0.966
  IC50: > 10000 nM

## Daoy (medulloblastoma, adherent)
MP470
  AUC: 0.54
  IC50: 1590 nM
LFM-A13
  AUC: 0.962
  IC50: > 16000 nM
TW-37
  AUC: 0.428
  IC50: 202 nM
Nilotinib
  AUC: 0.981
  IC50: > 2000 nM
AUY922
  AUC: 0.354
  IC50: 6.58 nM
Gemcitabine
  AUC: 0.068
  IC50: < 4 nM
KIN001-270
  AUC: 0.954
  IC50: > 20000 nM
Bicalutamide; [1]
  AUC: 0.989
  IC50: > 1020 nM
Bicalutamide; [2]
  AUC: 0.982
  IC50: > 10000 nM
